Patent US20100056627A1, “PHARMACEUTICAL COMPOSITIONS OF ALKYL GALLATES” (priority 2006, published 2010)

Tested on: influenza virus A/Aichi (H3N2)
Experiment: Virucidal activity against influenza virus A/Aichi (H3N2) (Table 16)
Conditions: absence of J1816

## CCCCCCCCOC(=O)c1cc(O)c(O)c(O)c1 [octyl gallate]
  octyl gallate concentration at which influenza virus completely lost the infectivity to cells: 60 mg/L
